Some of the results follow. At the low end of the ranking the order means little.

The target in this experiment is SIX1-Q177R homeodomain (UniProt Q15475). Kind of experiment: universal protein binding microarray. To be noted: Universal all-10-mer PBM (8x60K, AMADID 030236), 300 nM GST-tagged protein, Alexa Fluor 488 anti-GST; buffer, salt, pH and temperature not stated; high values mean tight binding; most listed sequences are background and not binding sites; double strand, one strand shown.
In the case of AGAACATG, the binding signal is -0.152 E-score. In the case of ACCCCTGA, the binding signal was determined as 0.24 E-score. As to GAACGTCC, the binding signal is -0.0783 E-score. For CTGAGTCC, the binding signal was -0.167 E-score. With GCTAGAAA, the binding signal is -0.211 E-score. CCAAACGG: the binding signal was -0.123 E-score.

As for GCAAGCAA, the binding signal was -0.227 E-score.

Consider CCAGACCG, for which the binding signal is -0.0322 E-score. Regarding AATCGAAG, the binding signal was -0.0378 E-score. Regarding CCACCTAC, the binding signal came to 0.17 E-score. As to AACTTATC, the binding signal was -0.214 E-score. As for ATCCTGTC, the figure is -0.152 E-score. In the case of CTGAAGAC, the binding signal is -0.0199 E-score. With GGAAATTA, the binding signal stood at 0.046 E-score. As to CTTGGGGC, the binding signal is -0.0372 E-score.

On to GACGTATA, for which the binding signal was -0.109 E-score. Turning to CCTAGTCC, the binding signal was 0.00572 E-score. Regarding ACCTGACA, the binding signal was determined as 0.228 E-score. Take AGTCGCGA: the binding signal was 0.189 E-score. For the sequence AAATAGTT, the binding signal was -0.209 E-score. Regarding ATAGCAGG, the binding signal was determined as 0.067 E-score. As for AGGGTAAA, the figure is 0.0589 E-score; as for ATCCAACA, 0.0961 E-score. On to ACAAGCAT, for which the binding signal was -0.0887 E-score. As to GAATTCCA, the binding signal was -0.261 E-score. As for ATCGATAG, the figure is -0.194 E-score; as for GCTCAGGA, -0.114 E-score; as for ATATATAA, -0.00381 E-score. As for GTACATGA, the figure is 0.0241 E-score. In the case of AGACGAAC, the binding signal was -0.0372 E-score. On to AAATGGTT, for which the binding signal was -0.285 E-score. As for AATTCGGT, the figure is -0.105 E-score; as for GCTTCTGA, -0.165 E-score; as for GAACGCTA, -0.126 E-score. As for CATGAGAG, the figure is -0.136 E-score; as for CTAACGCA, 0.0146 E-score; as for AAGCCGCG, -0.0646 E-score. Regarding CTGCCTAC, the binding signal is -0.0173 E-score. On to AATCCAAC, for which the binding signal is 0.096 E-score.

Turning to AGCACGGA, the binding signal was found to be 0.0948 E-score. Consider ACCCCCCA, for which the binding signal worked out at 0.306 E-score.

Take AGATTCGG: the binding signal came out at 0.0565 E-score. For CACTATTA, the binding signal turned out to be 0.158 E-score. As for GCCTTACC, the figure is -0.0667 E-score. As for GTCTTGGA, the binding signal is -0.0151 E-score. As for ACGCGTCA, the figure is 0.099 E-score; as for GAAGAGAC, -0.0229 E-score. In the case of CCGTGAAG, the binding signal is -0.212 E-score.

For the sequence ATAGTATG, the binding signal is -0.034 E-score. In the case of GGGACGGA, the binding signal is -0.265 E-score. On to GTAATGTA, for which the binding signal was -0.0128 E-score.

In the case of CCGATAAA, the binding signal was -0.178 E-score.

With CAGAAGTA, the binding signal is -0.196 E-score. Take GTATAGAC: the binding signal is -0.0241 E-score. ATGCACTA: the binding signal is -0.0351 E-score. Take AGAAATAT: the binding signal was -0.0575 E-score.

GAAAACGC: the binding signal is -0.129 E-score. ACACCCTA: the binding signal amounted to 0.466 E-score. On to ACCCACCA, for which the binding signal was found to be 0.2 E-score. As to AACGTTGA, the binding signal is -0.227 E-score. As for CGCATACA, the figure is 0.185 E-score; as for TGTGAAAA, 0.0116 E-score; as for GTTAAGTA, 0.077 E-score.

Regarding AAACCGAT, the binding signal was -0.0306 E-score. As for CTGCCACA, the figure is -0.00215 E-score.

As for AGCTTCGC, the binding signal was -0.228 E-score. On to CTTAGTCA, for which the binding signal was -0.304 E-score. As for GAAGGCTA, the figure is -0.249 E-score. Regarding AACAGTAA, the binding signal was -0.137 E-score.

Regarding CCACCTTC, the binding signal turned out to be 0.19 E-score.

Turning to AGCGATGC, the binding signal was -0.263 E-score. Turning to AAATGACC, the binding signal was -0.0386 E-score. As for ATACTGAT, the figure is 0.0331 E-score; as for ATTGCCGC, -0.26 E-score.

For the sequence AATTATAT, the binding signal turned out to be 0.0479 E-score. As for AGAATCGC, the figure is -0.0585 E-score; as for GGGCCACC, -0.156 E-score; as for ATTGGCTA, -0.235 E-score. Consider ATTACGCG, for which the binding signal stood at 0.0608 E-score. Take AAGTACCT: the binding signal was determined as 0.0031 E-score. ACAAGTCG: the binding signal is -0.104 E-score. For CGCCTCGC, the binding signal is -0.089 E-score. With GCATTAAC, the binding signal amounted to 0.0583 E-score.

As to TAAGCATA, the binding signal is -0.042 E-score. In the case of GAACAATC, the binding signal was -0.302 E-score. As for AGTTAGCA, the figure is 0.0431 E-score; as for CTGTCTAA, -0.0271 E-score.

With CCGAAAGA, the binding signal is -0.203 E-score.

Turning to GGATCAAC, the binding signal amounted to 0.111 E-score. Consider ACGACCCA, for which the binding signal is 0.129 E-score.

As for ACCTTACT, the binding signal is 0.128 E-score. Consider AACAGTTC, for which the binding signal is -0.162 E-score.

In the case of GTCTACTA, the binding signal is -0.0466 E-score. Take ACTCGAAT: the binding signal was -0.221 E-score. Turning to GACGTTTA, the binding signal is -0.121 E-score. As for GTGAGGAA, the figure is -0.0427 E-score; as for TCCCTCAA, 0.00936 E-score. For the sequence ATCCTTCC, the binding signal is -0.132 E-score. As to GCAGTCTA, the binding signal was -0.223 E-score. AATGAGTA: the binding signal is -0.0919 E-score. Turning to ATGTATCG, the binding signal was -0.0358 E-score. Turning to ACGGATCG, the binding signal was determined as 0.128 E-score. For the sequence AGGCGGCA, the binding signal was -0.0211 E-score. As to GCCCTAGA, the binding signal is -0.104 E-score. Take CAGTTGGA: the binding signal is -0.126 E-score.

As to ACGCATGG, the binding signal turned out to be 0.0703 E-score.

In the case of AGCGAGTC, the binding signal is -0.101 E-score. Consider CATCTGCC, for which the binding signal is -0.00291 E-score. On to AGGAACCA, for which the binding signal is -0.0172 E-score.

Source of the values: article PMC10668032.
